Assay results: PubChem BioAssay AID686978 (National Center for Advancing Translational Sciences (NCATS), 2013)
In all, about 420,000 compounds went through this assay and about 64,000 (15%) were called active. Inconclusive results, whose numbers are uncertain, are shown with a selection of clear calls. Calls follow the shape of the dose curve; as a rule, active = well fitted inhibition curve with a large enough effect; inconclusive = small, poorly fitted or top-dose-only effect; inactive = flat fitted curve, though single readings scatter. Potencies of inconclusive entries are left out as doubtful fits.

assay: qHTS for Inhibitors of human tyrosyl-DNA phosphodiesterase 1 (TDP1): qHTS in cells in absence of CPT; settings: DT40 Tdp1-/- hTDP1 cells, no CPT, ATP luminescence, 48 h; activity change, negative = growth inhibition: at 46.2 µM (top of the series) unless noted; also: nearly all actives have a fitted effect of over 55% in size
In short: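 Chicken DT40 Tdp1-/- cells complemented with human TDP1, screened without camptothecin (DMSO vehicle only), 400 cells/well. Compounds pin-transferred, cells incubated at 37 °C for at least 48 hr. Growth read as ATP-dependent luminescence (CellTiter-Glo, 30 min at RT).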
% is scaled to controls: 0 for no effect and ±100 for the full control effect; potency is read from the fitted curve at half-maximal effect; tags tell the direction and shape of the fitted curve.

SMILES | activity change, negative = growth inhibition | Potency
O=C(Nn1c(C2CCCCC2)nc2ccccc2c1=O)c1ccc([N+](=O)[O-])cc1 | inactive: -27.8% | 
CC1CCC2(CC1)NC(=O)N(CC(=O)Nc1ccc3c(c1)CCC3)C2=O (stereo not given) |  | inconclusive [inhibitor, partial curve]
Cc1cc(C(=O)N2CCN(c3ncccn3)CC2)c2cc(F)ccc2n1 |  | inconclusive [inhibitor, partial curve]
Cc1nc(Nc2ccccc2F)c2oc3ccccc3c2n1 |  | inconclusive [inhibitor, partial curve]
O=C(Nc1ccc(Cl)cc1)Nn1cnnc1 | inactive: -3.47% | 
COc1ccccc1C1C([N+](=O)[O-])=CC([N+](=O)[O-])=CN1C (stereo not given) |  | inconclusive [inhibitor, single point]
Cc1cc(C)c(Cn2c(C3CC(=O)N(c4ccc(F)cc4)C3)nc3ccccc32)c(C)c1 (stereo not given) |  | inconclusive [inhibitor, partial curve]
Nc1ccc2nn(-c3ccc(F)cc3)nc2c1 |  | inconclusive [inhibitor, single point]
O=c1nc(Nc2ccc(OCc3ccccc3)cc2)sc2ncccc12 |  | inconclusive [inhibitor, full curve]
COc1cccc(NC(=O)CSc2nc(=O)n(Cc3ccncc3)c3c2CCC3)c1 | inactive: -10.2% | 
CCOc1ncccc1C(=O)OCC(=O)Nc1cccc(S(=O)(=O)N2CCCCCC2)c1 |  | inconclusive [inhibitor, single point]
COc1ccc(-n2nc(C(=O)NCC(=O)N3CCC(C)CC3)c3ccccc3c2=O)cc1Cl |  | inconclusive [inhibitor, single point]
COc1ccccc1N=Cc1c(O)c2ccccc2oc1=O |  | inconclusive [inhibitor, single point]
COc1cccc(S(=O)(=O)N(C)C[C@@H]2Oc3cc(C#CCN(C)C)ccc3S(=O)(=O)N([C@H](C)CO)C[C@@H]2C)c1 |  | inconclusive [inhibitor, partial curve]
O=C(COc1ccccc1[N+](=O)[O-])N/N=C/C=C/c1ccco1 |  | inconclusive [inhibitor, partial curve, poor fit]
COc1ccc(CC(N)c2csc(NC(=O)Nc3cccc(C(F)(F)F)c3)n2)cc1 (stereo not given) |  | inconclusive [inhibitor, single point]
Cc1ccc(S(=O)(=O)Nc2ccccc2C(=O)N2CCN(C)CC2)cc1 | inactive: 8.28% | 
COc1cc(NC(=O)C2(C)CCN2C(C)C)cc(OC)c1OC (stereo not given) | inactive: 2.8% | 
Cc1cc(NC(=O)COC(=O)COc2ccc(Cl)c(C)c2)no1 | inactive: -26.3% | 
CCC1CCCCN1CCCNC(=O)c1ccc(CS(=O)(=O)c2ccc(Br)cc2)o1 (stereo not given) |  | inconclusive [inhibitor, single point]
O=C(O)CCCCCN1C(=O)/C(=C\c2ccc(-c3ccc(Cl)cc3)o2)SC1=S |  | inconclusive [inhibitor, single point]
CCn1c(CN2C(=O)CSc3ccccc32)n[nH]c1=S | inactive: -8.13% | 
Cn1c(=O)[nH]c(=O)c2c1nc(SCC(=O)Nc1ccccc1)n2Cc1ccccc1 |  | active: 18.4 µM

SMILES | activity change, negative = growth inhibition | Potency
N#CCCn1c(=O)c(-c2cc(F)cc(F)c2)nc2cnc(OCc3ccccc3)nc21 |  | inconclusive [inhibitor, single point]
COc1ccc(CNC(=O)c2ccc3c(=O)n4c(nc3c2)CCCCC4)cc1OC |  | inconclusive [inhibitor, single point]
CCOC(=O)N1CCN(C(=O)c2cnc(Nc3ccccc3OC)c3ccccc23)CC1 |  | inconclusive [inhibitor, single point]
Cn1c(SCC(=O)Nc2cc(S(=O)(=O)N3CCOCC3)ccc2N2CCOCC2)nnc1-c1ccncc1 | inactive: -2.11% | 
CCNc1nc2c(c(=O)n(Cc3ccccc3)c(=O)n2C)n1Cc1ccccc1 |  | inconclusive [inhibitor, single point]
CCOC(=O)c1ccc(NC(=O)CCS(=O)(=O)c2ccc(Br)s2)cc1 |  | active: 18.4 µM
CCN(CC)c1cc(NCCO)c([N+](=O)[O-])c2nonc12 | inactive: -17.5% | 
CC(C)C(NC(=O)c1ccc(C(C)(C)C)cc1)C(=O)NCc1ccccn1 (stereo not given) |  | inconclusive [inhibitor, single point]
CCOC(=O)c1c(C)[nH]c(C)c1C(=O)COC(=O)c1ccc([N+](=O)[O-])s1 |  | inconclusive [inhibitor, single point]
CCOc1ccc(CCNC(=O)COC(=O)COc2ccc(C(C)=O)cc2)cc1OCC |  | inconclusive [inhibitor, partial curve]
FC(F)(F)c1ccc(CN2C[C@@H]3C(c4ccc(Cl)nc4)C4(c5cccnc5)CC3(C4)[C@H]2c2ccccc2)cc1 (stereo not given in full) |  | active: 16.4 µM
O=C(O)c1ccc(-n2c(O)c(C=C3N=c4ccccc4=N3)sc2=S)cc1 | inactive: -2.75% | 
CC(=O)Nc1ccccc1NC(=O)CN(C)S(=O)(=O)c1ccc(C)cc1 | inactive: -14.3% | 
Cc1ccc(NC(=O)C(C)n2nnc3sc4c(c3c2=O)CCCC4)cc1Cl (stereo not given) |  | active: 14.6 µM
Clc1ccc(C2CC(c3cccs3)n3ncnc3N2)c(Cl)c1 (stereo not given) |  | inconclusive [inhibitor, partial curve]
Cc1c(Cl)cccc1NC(=O)c1ncoc1-c1ccco1 | inactive: -28.9% | 
FC(F)(F)c1cc(Cl)c2nc(-c3ccc(Cl)cc3)c(Cc3ccsc3)n2c1 | inactive: -9.3% | 
CC(=O)c1ccc(NC(=O)CCCSc2nc(-c3ccco3)cc(C(F)(F)F)n2)cc1 |  | active: 16.4 µM
COc1cccc(OC)c1C(=O)Nc1ccccc1C(=O)N1CCOCC1 | inactive: 12% | 
CCc1ccc(NC(=O)CSc2nc3ccccc3c(=O)n2CCNC(C)=O)cc1 | inactive: -22.4% | 
CSCc1nc2sc(C(=O)Nc3nc(C)cs3)c(C)c2c(=O)[nH]1 |  | inconclusive [inhibitor, single point]
CCN(c1cccc(C)c1)S(=O)(=O)c1ccc(OC)c([N+](=O)[O-])c1 |  | inconclusive [inhibitor, partial curve]
